Tested on: mice to which a sleeping dose of pentobarbital (45 mg/kg, i.p.) was administered
Experiment: Pentobarbital-induced sleep test
Conditions: vicenin 50 mg/kg p.o. (tested at 6.25, 12.5, 25 or 50 mg/kg)

O=c1cc(-c2ccc(O)cc2)oc2c([C@@H]3O[C@H](CO)[C@@H](O)[C@H](O)[C@H]3O)c(O)c([C@@H]3O[C@H](CO)[C@@H](O)[C@H](O)[C@H]3O)c(O)c12 [vicenin]
sleep duration-increasing effect: sleep duration-increasing effect | sleep latency-decreasing effect: significant sleep latency-decreasing effect

— US20240382552A1, “COMPOSITION FOR PREVENTING, AMELIORATING OR TREATING SLEEP DISORDER OR INSOMNIA, CONTAINING EXTRACT OF ROASTED CITRUS BYPRODUCT AS ACTIVE INGREDIENT” (priority 2021, published 2024)
